# Experimental data as given in the supplement of paper PMC8728848.
# The list shows a part of the results.
# B1: BC2L-D C-terminal domain (Burkholderia cenocepacia), Q39MQ9_BURS3 (protein)
# chain: LVIVDAVTLLSAYPEASRDPAAPTVIDGRHLYVVSPGDAAQLGHNDSRLFTGLSPGDQLHLRETALALRAEVSVLFIRFALKDAGIVAPIELEVRDAATAVPDADDLLHPSCRPLKDHYWRSDVLAAGATTCTADFAVCDRDGTVSGYFRWETSIEIAGSQPDTKQPGFKPSSDRNGNFSLPPNTAFKAIFYANAADRQDLKLFIDDAPEPAATFVGNSEDGVRLFTLNSKGGKIRIEASANGRQSATDARLAPLSAGDTVWLGWLGAEDGADADYNDGIVILQWPIT
# Tests used:
# Assay in all cases: glycan array binding signal (z-score within array); higher = stronger binding
# Conditions in all cases: glycan notation: IUPAC condensed, linker removed
# [1] = target: Fuc(a1-3)[GalNAc(b1-4)]GlcNAc
# In short: (§1)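 The binding signal is a Z-score computed within each array and averaged over linkers. Arrays of the same protein sequence at different concentrations or buffers were also averaged together. Data originate from 3228 arrays in the Consortium for Functional Glycomics database, kept only where the protein sequence was available.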
# [2] = target: Fuc(a1-3)[Neu5Ac(a2-3)]Gal(b1-4)GlcNAc(b1-3)GalNAc
# In short: as §1
# Fuc(a1-4)GlcNAc = target: Fuc(a1-4)GlcNAc
# In short: as §1
# Fuc(b1-3)GlcNAc = target: Fuc(b1-3)GlcNAc
# In short: as §1
# Gal(a1-2)Gal = target: Gal(a1-2)Gal
# In short: as §1
# Gal(a1-3)Gal = target: Gal(a1-3)Gal
# In short: as §1
# Gal(a1-3)Gal(b1-3)GlcNAc = target: Gal(a1-3)Gal(b1-3)GlcNAc
# In short: as §1
# [3] = target: Gal(a1-3)Gal(b1-3)GlcNAc(b1-2)Man(a1-3)[Gal(a1-3)Gal(b1-3)GlcNAc(b1-2)Man(a1-6)]Man(b1-4)GlcNAc(b1-4)GlcNAc
# In short: as §1
# [4] = target: Gal(a1-3)Gal(b1-3)GlcNAc(b1-3)GalNAc
# In short: as §1
# [5] = target: Gal(a1-3)Gal(b1-3)[Fuc(a1-4)]GlcNAc(b1-2)Man(a1-3)[Gal(a1-3)Gal(b1-3)[Fuc(a1-4)]GlcNAc(b1-2)Man(a1-6)]Man(b1-4)GlcNAc(b1-4)GlcNAc
# In short: as §1
# Gal(a1-3)Gal(b1-4)Glc = target: Gal(a1-3)Gal(b1-4)Glc
# In short: as §1
# Gal(a1-3)Gal(b1-4)GlcNAc = target: Gal(a1-3)Gal(b1-4)GlcNAc
# In short: as §1
# [6] = target: Gal(a1-3)Gal(b1-4)GlcNAc(b1-3)GalNAc
# In short: as §1
# [7] = target: Gal(a1-3)Gal(b1-4)[Fuc(a1-3)]GlcNAc
# In short: as §1
# [8] = target: Gal(a1-3)Gal(b1-4)[Fuc(a1-3)]GlcNAc(b1-2)Man(a1-3)[Gal(a1-3)Gal(b1-4)[Fuc(a1-3)]GlcNAc(b1-2)Man(a1-6)]Man(b1-4)GlcNAc(b1-4)GlcNAc
# In short: as §1
# Gal(a1-3)GalNAc = target: Gal(a1-3)GalNAc
# In short: as §1
# [9] = target: Gal(a1-3)[Gal(a1-4)]Gal(b1-4)GlcNAc
# In short: as §1
# [10] = target: Gal(a1-4)Gal(b1-3)GlcNAc(b1-2)Man(a1-3)[Gal(a1-4)Gal(b1-3)GlcNAc(b1-2)Man(a1-6)]Man(b1-4)GlcNAc(b1-4)GlcNAc
# In short: as §1
# Gal(a1-4)Gal(b1-4)Glc = target: Gal(a1-4)Gal(b1-4)Glc
# In short: as §1
# Gal(a1-4)Gal(b1-4)GlcNAc = target: Gal(a1-4)Gal(b1-4)GlcNAc
# In short: as §1
# [11] = target: Gal(a1-4)Gal(b1-4)GlcNAc(b1-2)Man(a1-3)[Gal(a1-4)Gal(b1-4)GlcNAc(b1-2)Man(a1-6)]Man(b1-4)GlcNAc(b1-4)GlcNAc
# In short: as §1
# [12] = target: Gal(a1-4)Gal(b1-4)GlcNAc(b1-3)Gal(b1-4)Glc
# In short: as §1
# Gal(a1-4)GlcNAc = target: Gal(a1-4)GlcNAc
# In short: as §1
# Gal(a1-6)Glc = target: Gal(a1-6)Glc
# In short: as §1
# Gal(b1-2)Gal = target: Gal(b1-2)Gal
# In short: as §1
# Gal(b1-3)Gal = target: Gal(b1-3)Gal
# In short: as §1
# Gal(b1-3)Gal(b1-4)GlcNAc = target: Gal(b1-3)Gal(b1-4)GlcNAc
# In short: as §1
# [13] = target: Gal(b1-3)Gal(b1-4)GlcNAc(b1-2)Man(a1-3)[Gal(b1-3)Gal(b1-4)GlcNAc(b1-2)Man(a1-6)]Man(b1-4)GlcNAc(b1-4)GlcNAc
# In short: as §1
# Gal(b1-3)GalNAc = target: Gal(b1-3)GalNAc
# In short: as §1
# [14] = target: Gal(b1-3)GalNAc(a1-3)[Fuc(a1-2)]Gal(b1-4)Glc
# In short: as §1
# [15] = target: Gal(b1-3)GalNAc(a1-3)[Fuc(a1-2)]Gal(b1-4)GlcNAc
# In short: as §1
# [16] = target: Gal(b1-3)GalNAc(b1-3)Gal(a1-4)Gal(b1-4)Glc
# In short: as §1
# [17] = target: Gal(b1-3)GalNAc(b1-4)Gal(b1-4)Glc
# In short: as §1
# [18] = target: Gal(b1-3)GalNAc(b1-4)[Neu5Ac(a2-3)]Gal(b1-4)Glc
# In short: as §1
# Gal(b1-3)GlcNAc = target: Gal(b1-3)GlcNAc
# In short: as §1
# [19] = target: Gal(b1-3)GlcNAc(a1-6)Gal(b1-4)GlcNAc
# In short: as §1
# [20] = target: Gal(b1-3)GlcNAc(b1-2)Man(a1-3)[Gal(b1-3)GlcNAc(b1-2)Man(a1-6)]Man(b1-4)GlcNAc(b1-4)GlcNAc
# In short: as §1
binder,measurement,setting,value
B1,glycan array binding signal (z-score),[1],-0.217
same,glycan array binding signal (z-score),[2],-0.166
same,glycan array binding signal (z-score),Fuc(a1-4)GlcNAc,-0.122
same,glycan array binding signal (z-score),Fuc(b1-3)GlcNAc,-0.241
same,glycan array binding signal (z-score),Gal(a1-2)Gal,-0.241
same,glycan array binding signal (z-score),Gal(a1-3)Gal,-0.244
same,glycan array binding signal (z-score),Gal(a1-3)Gal(b1-3)GlcNAc,-0.242
same,glycan array binding signal (z-score),[3],-0.165
same,glycan array binding signal (z-score),[4],-0.163
same,glycan array binding signal (z-score),[5],-0.083
same,glycan array binding signal (z-score),Gal(a1-3)Gal(b1-4)Glc,-0.204
same,glycan array binding signal (z-score),Gal(a1-3)Gal(b1-4)GlcNAc,-0.24
same,glycan array binding signal (z-score),[6],-0.164
same,glycan array binding signal (z-score),[7],-0.217
same,glycan array binding signal (z-score),[8],-0.19
same,glycan array binding signal (z-score),Gal(a1-3)GalNAc,-0.245
same,glycan array binding signal (z-score),[9],-0.247
same,glycan array binding signal (z-score),[10],-0.116
same,glycan array binding signal (z-score),Gal(a1-4)Gal(b1-4)Glc,-0.245
same,glycan array binding signal (z-score),Gal(a1-4)Gal(b1-4)GlcNAc,-0.24
same,glycan array binding signal (z-score),[11],-0.16
same,glycan array binding signal (z-score),[12],-0.231
same,glycan array binding signal (z-score),Gal(a1-4)GlcNAc,-0.243
same,glycan array binding signal (z-score),Gal(a1-6)Glc,-0.242
same,glycan array binding signal (z-score),Gal(b1-2)Gal,-0.247
same,glycan array binding signal (z-score),Gal(b1-3)Gal,-0.242
same,glycan array binding signal (z-score),Gal(b1-3)Gal(b1-4)GlcNAc,-0.241
same,glycan array binding signal (z-score),[13],-0.229
same,glycan array binding signal (z-score),Gal(b1-3)GalNAc,-0.238
same,glycan array binding signal (z-score),[14],-0.236
same,glycan array binding signal (z-score),[15],-0.233
same,glycan array binding signal (z-score),[16],-0.238
same,glycan array binding signal (z-score),[17],-0.244
same,glycan array binding signal (z-score),[18],-0.242
same,glycan array binding signal (z-score),Gal(b1-3)GlcNAc,-0.241
same,glycan array binding signal (z-score),[19],-0.158
same,glycan array binding signal (z-score),[20],0.233
